# From a collection of fitness landscapes (doi:10.1016/j.celrep.2020.107928)
# The full ranking holds about 81,000 sequences; the median of “one-hybrid fitness for binding parS DNA” is about -0.17, and the highest 2% start at about 0.51. This is one part of the list.
# B1: Caulobacter ParB omega fusion; a variant is named by its letters at X, in order, B8GW30 (parent)
# chain: MESVVVGEPGMSEGRRGLGRGLSALLGEVDAAPAQAPGEQLGGSREAPIEILQRNPDQPRRTFREEDLEDLSNSIREKGVLQPILVRPSPDTAGEYQIVAGERAWRAAQRAGLKTVPIMVRELDDLAVLEIGIIENVQRADLNVLEEALSYKVLMEKFERTQENIAQTIGKSXSHVANXMRLLXLPDEVQSYLVSGELTAXHARAIAAAADPVALAKQIIEGGLSVRETEALARKAPNLSAGKSKGGRPPRVKDTDTQALESDLSSVLGLDVSIDHRGSTGTLTITYATLEQLDDLCNRLTRGI
# Variants of: B1
# Assay: one-hybrid fitness for binding parS DNA (scaled: cognate 1, non-cognate 0); higher = stronger binding
# Details: with parS DNA site
# How it was run: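 Fitness is the rescaled log change in variant-to-wild-type read ratio, measured by Illumina sequencing of plasmids before and after bacterial one-hybrid selection. The scale puts cognate at 1 and non-cognate at 0. Selection of Caulobacter ParB libraries, four specificity codons randomised, took place in E. coli USO with a HIS3 reporter, site 19 bp from the promoter, over 48 hours at 37°C on M9-minus-histidine with 0.1 mM IPTG and 5 mM 3-AT.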
row,Variant,one-hybrid fitness for binding parS DNA
1,PMRA,≤ 0.2
2,LYGG,≤ 0.2
3,SASD,≤ 0.2
4,NAKQ,≤ 0.2
5,QWRS,≤ 0.2
6,PERE,≤ 0.2
7,CEVT,≤ 0.2
8,YHLR,≤ 0.2
9,WKLW,≤ 0.2
10,HSKN,≤ 0.2
11,RDVC,≤ 0.2
12,YDPL,≤ 0.2
13,CGRF,≤ 0.2
14,DHCF,≤ 0.2
15,NLCV,≤ 0.2
16,LDAF,≤ 0.2
17,LDVT,≤ 0.2
18,QNYY,≤ 0.2
19,VPFS,≤ 0.2
20,QCRA,≤ 0.2
21,NETK,≤ 0.2
22,YQSD,≤ 0.2
23,AFSL,≤ 0.2
24,DRFN,≤ 0.2
25,RSAK,≤ 0.2
26,IYHW,≤ 0.2

row,Variant,one-hybrid fitness for binding parS DNA
1,HPPD,≤ 0.2
2,VSPD,≤ 0.2
3,NEAL,≤ 0.2
4,NLRC,≤ 0.2
5,FSLF,≤ 0.2
6,HGAN,≤ 0.2
7,KWHC,≤ 0.2
8,YGSW,≤ 0.2
9,EKYT,≤ 0.2
10,QVYG,≤ 0.2
11,QQHS,≤ 0.2
12,RGQA,0.364
13,CAWG,≤ 0.2
14,QGII,≤ 0.2
15,TMRG,≤ 0.2
16,RKFS,0.927
17,HYMY,≤ 0.2
18,IFNC,≤ 0.2
19,QQYT,≤ 0.2
20,MACA,≤ 0.2
21,WPQC,0.245
22,LGSF,≤ 0.2
23,ICRT,≤ 0.2
24,PGSW,≤ 0.2
25,ECGS,≤ 0.2
26,WPES,≤ 0.2

row,Variant,one-hybrid fitness for binding parS DNA
1,WTVC,≤ 0.2
2,VWSR,≤ 0.2
3,SLDT,≤ 0.2
4,GAMW,≤ 0.2
5,SMAR,≤ 0.2
6,MQCS,≤ 0.2
7,ACHH,≤ 0.2
8,VLGG,≤ 0.2
9,PFHL,≤ 0.2
10,WTLN,≤ 0.2
11,TGTR,≤ 0.2
12,APPD,≤ 0.2
13,KNFR,≤ 0.2
14,VDYV,≤ 0.2
15,LKQG,≤ 0.2
16,DKYS,≤ 0.2
17,DVPC,≤ 0.2
18,ECYC,≤ 0.2
19,CFES,≤ 0.2
20,SDIS,≤ 0.2
21,SQAE,≤ 0.2
22,VTCL,≤ 0.2
23,VLAY,≤ 0.2
24,HKRQ,≤ 0.2
25,MNLT,≤ 0.2
26,SGFW,0.267

row,Variant,one-hybrid fitness for binding parS DNA
1,LNHI,≤ 0.2
2,LYYL,≤ 0.2
3,DTFI,≤ 0.2
4,RRGH,≤ 0.2
5,DMHG,≤ 0.2
6,KLNM,≤ 0.2
7,TDDT,≤ 0.2
8,NMLV,≤ 0.2
9,PRLF,≤ 0.2
10,RTGK,≤ 0.2
11,IPCY,≤ 0.2
12,MQNS,≤ 0.2
13,RAML,≤ 0.2
14,DMPM,≤ 0.2
15,ICTT,≤ 0.2
16,QHET,≤ 0.2
17,RPKD,≤ 0.2
18,EAMR,≤ 0.2
19,QEEP,≤ 0.2
20,FMSD,≤ 0.2
21,LYTW,≤ 0.2
22,LFFK,≤ 0.2
23,VLAH,≤ 0.2
24,LTGM,≤ 0.2
25,GKDS,≤ 0.2
26,QMHL,≤ 0.2

row,Variant,one-hybrid fitness for binding parS DNA
1,AGVT,≤ 0.2
2,SDSS,≤ 0.2
3,QRLF,≤ 0.2
4,NKLC,≤ 0.2
5,VPSG,≤ 0.2
6,MYMR,≤ 0.2
7,RNMD,≤ 0.2
8,DFNL,≤ 0.2
9,LGQV,≤ 0.2
10,VLQN,≤ 0.2
11,QLIC,≤ 0.2
12,RACH,0.306
13,FEKL,≤ 0.2
14,QDST,≤ 0.2
15,TETI,≤ 0.2
16,FCHS,≤ 0.2
17,NNNR,≤ 0.2
18,QLRE,≤ 0.2
19,TADK,≤ 0.2
20,HMSS,≤ 0.2
21,DLNM,≤ 0.2
22,NGCC,≤ 0.2
23,TEEG,≤ 0.2
24,VQYD,≤ 0.2
25,LFYN,≤ 0.2
26,MPAI,≤ 0.2

row,Variant,one-hybrid fitness for binding parS DNA
1,LPIY,≤ 0.2
2,QLAF,≤ 0.2
3,CRPA,≤ 0.2
4,RITA,0.55
5,SMFC,≤ 0.2
6,KERT,≤ 0.2
7,RIES,0.93
8,TYNC,≤ 0.2
9,RTMN,0.433
10,DWHY,≤ 0.2
11,AFNG,≤ 0.2
12,KLAV,≤ 0.2
13,YRLD,≤ 0.2
14,ASSC,≤ 0.2
15,TCNW,≤ 0.2
16,RMSP,0.204
17,QCMT,≤ 0.2
18,RKNC,0.806
19,LVYY,≤ 0.2
20,GLCG,≤ 0.2
21,KHPR,≤ 0.2
22,RVTR,≤ 0.2
23,QYLL,≤ 0.2
